The inconclusive results got no clear call from the source; some entries with a clear call stand among them for comparison. Potencies of inconclusive entries are doubtful fits and often do not repeat. The source made the active and inactive calls. The call rests on the fitted dose curve; in most records, active means well fitted inhibition curve with a large enough effect; inconclusive means small, poorly fitted or top-dose-only effect; inactive means flat fitted curve, though single readings scatter.
What follows are molecules tested on HEK293 (assay: Cytotoxic Profiling of Annotated Libraries Using Quantitative High-Throughput Screening (AID 1296008; further: nearly all actives have a fitted effect of over 60% in size)). Settings: Five cell lines viability, CellTiter-Glo ATP luminescence, 48-72 h; max response: stronger effect = lower value.
Procedure, shortened: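 Cytotoxicity was measured as CellTiter-Glo ATP luminescence, read after 10 min at room temperature. Compound treatment of the cells lasted 48 or 72 hr at 37 degrees Celsius in a qHTS format.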
In the case of `CC(C)c1cc2c(c(O)c1O[C@@H]1O[C@H](CO)[C@@H](O)[C@H](O)[C@H]1O)CC1(O)CCC(O)C(C)(C)C1CC2` (stereo partly drawn), the outcome is reported as “inactive”. For `C=C[C@H]1[C@H](O[C@@H]2O[C@H](CO[C@@H]3OC[C@](O)(CO)[C@H]3O)[C@@H](O)[C@H](O)[C@H]2O)OC=C2C(=O)OCC[C@H]21`, the outcome was “inactive”. `CC(C)Nc1nc(Nc2ccccc2)nc(-c2ccccc2)n1` was tested, and the Potency was inconclusive: 18.4 µM [inhibitor, partial curve]. `C[C@@H](O)[C@H]1C(=O)N2C(C(=O)O)=C(S[C@@H]3CN[C@H](CNS(N)(=O)=O)C3)[C@H](C)[C@H]12` was tested, and the Potency was inconclusive: 33.5 µM [inhibitor, single point]. `O=[N+]([O-])c1cn2c(n1)OC[C@@H](OCc1ccc(-c3ccc(OC(F)(F)F)cc3)nc1)C2` was tested, and the Potency was inconclusive: 23.1 µM [inhibitor, single point]. For `COc1cc(/C=C2\CC[C@H]3COC[C@@H](c4cc(F)c(F)c(F)c4)N3C2=O)ccc1-n1cnc(C)c1`, the Potency was inconclusive: 18.4 µM [inhibitor, single point]. `Cc1ccc(Cl)c(OCC(O)CNC(C)(C)C)c1` (stereo not drawn) was tested, and the Potency was inconclusive: 26.6 µM [inhibitor, single point]. For `CC(C)(C)c1ccc(C(=O)CCCCl)cc1`, the Potency was inconclusive: 33.5 µM [inhibitor, single point]. With `O=C(O)CCc1nccc2c1[nH]c1ccccc12` the Potency was inconclusive: 29.1 µM [inhibitor, single point]. For `CC(=O)O[C@@H]1[C@H](O[C@@H]2O[C@H](CO)[C@@H](O)[C@H](O)[C@H]2O)[C@@H](O[C@@H]2O[C@@H](C)[C@H](O)[C@@H](O[C@@H]3O[C@H](CO)[C@@H](O)[C@H](O)[C@H]3O)[C@H]2O)[C@H](OC(=O)[C@]23CCC(C)(C)C[C@H]2C2=CCC4[C@@]5(C)C[C@H](O)[C@H](O[C@@H]6O[C@H](C(=O)O)[C@@H](O)[C@H](O)[C@H]6O)[C@@](C)(C(=O)O)C5CC[C@@]4(C)[C@]2(C)CC3)O[C@@H]1C` (stereo partly drawn), the max response was inactive: -5.4%. With `O=C(O)C1=CO[C@@H](O[C@@H]2O[C@H](CO)[C@@H](O)[C@H](O)[C@H]2O)[C@@H]2C(CO)=CC[C@H]12` the Potency was inconclusive: 20.2 µM [inhibitor, single point]. For `C[C@@H]1CC[C@]2(C(=O)O)CC[C@]3(C)C(=CCC4[C@]5(C)C(CC[C@]43C)C(C)(C)[C@@H](O)[C@H](O)[C@@H]5O)C2[C@]1(C)O` (stereo partly drawn), the outcome was “inactive”. With `CC(=O)SC[C@@H](Cc1ccccc1)C(=O)NCC(=O)OCc1ccccc1` the max response was inactive: -5.72%.

From PubChem BioAssay (NCATS)
On the % scale 0 is the no-effect control and ±100 the full control effect; potency means the concentration at half of the fitted maximal effect; tags describe the fitted curve by direction and shape.
